Reference: PubChem BioAssay AID1345083 (National Center for Advancing Translational Sciences (NCATS), 2018)
About 6,200 (6.6%) of roughly 94,000 compounds were called active. Inconclusive means that the source gave no clear call. Such entries were picked first, then a sample of the others. Calls follow the shape of the dose curve; as a rule, active = well fitted inhibition curve with a large enough effect; inconclusive = small, poorly fitted or top-dose-only effect; inactive = flat fitted curve, though single readings scatter. Potencies beside an inconclusive call are fits to weak or partial responses and may not hold up.

assay: Cytotoxic Profiling in HEK 293 Cell Line of Diverse Libraries Using Quantitative High-Throughput Screening; settings: HEK 293 viability, ATP luminescence (CellTiter-Glo), 48-72 h; series mostly up to 115 µM; also: nearly all actives have a fitted effect of over 60% in size
How it was run: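 Luminescence from cellular ATP, measured with CellTiter-Glo, indicates HEK 293 viability. Cells plated at 250 cells/well are treated with compound for 48 or 72 hr at 37 degree Celsius before reagent addition.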
Potency is read from the fitted curve at half-maximal effect; tags tell the direction and shape of the fitted curve.

Compound	Potency
O=S(=O)(c1cccs1)N1CC(c2noc(C3CCCN3CC3CC3)n2)C1 (stereo not given)	inconclusive: 7.08 µM [inhibitor, full curve, poor fit]
Cc1ccc(-c2nccn3cc(C(=O)N4CCN(CC(C)C)CC4)nc23)cc1	inactive
O=C(C1COc2ccccc2C1)N1CCC(Cc2noc(C3CC3)n2)CC1 (stereo not given)	inconclusive: 56.2 µM [inhibitor, partial curve, poor fit]
Cc1ccc(N2CC(c3noc(-c4cccc(Cl)c4)n3)CC2=O)cc1 (stereo not given)	inactive
CN(C)C(=O)c1nc2sccn2c1-c1ccc(F)cc1	inactive
F[C@@H]1CN(Cc2ccc(C(F)(F)F)cc2)C[C@@H]1OCc1nc2ccccc2[nH]1	active: 79.4 µM
O=C(CCC1CCN(S(=O)(=O)c2ccc(F)cc2)CC1)NCc1nc2ccccc2[nH]1	inconclusive: 50.1 µM [inhibitor, partial curve, poor fit]
Cc1nn(C(=O)CCCC(=O)N2CCC(CCOc3ccccc3)C2)c2ccccc12 (stereo not given)	inconclusive: 50.1 µM [inhibitor, partial curve, poor fit]
O=C(CCc1nc2ccccc2s1)N1CCC(Cc2noc(-c3ccc(F)cc3)n2)C1 (stereo not given)	active: 39.8 µM
O=c1[nH]c(C2CCN([S+](=O)([O-])c3cccs3)CC2)nn1-c1ccccn1	inactive
Cc1ccc(CN2CCc3oc(C)c(C(=O)NCCN4CCN(C)CC4)c3C2)cc1	inactive
CC(=O)Nc1cccc(-c2cc3c(ccn3C)c(C(=O)NCCc3cnc[nH]3)n2)c1	inconclusive: 112 µM [inhibitor, partial curve]
CC(C)c1ccc(N2C(=S)N[C@H]3[C@@H](O)[C@H](O)C[C@@H](C(=O)N(C)Cc4ccccc4)[C@H]32)cc1	active: 39.8 µM
Cn1nc(C2CCN(S(=O)(=O)c3cccs3)CC2)n(CCc2ccccc2)c1=O	inconclusive: 89.1 µM [inhibitor, single point]
CN1C[C@@H](NC(=O)Nc2ccc(F)cc2F)C[C@H]1c1nc(-c2ccccc2)no1	active: 63.1 µM
CN1c2cc(C(=O)Nc3ccc(Oc4ccccc4)cc3)ccc2C(=O)N2CCCCC21 (stereo not given)	inconclusive: 20 µM [inhibitor, full curve, poor fit]
O=C(Nc1ccc(Cl)cc1)C1CCN(C(=O)c2ncn3c2COC(c2ccc(F)cc2)C3)CC1 (stereo not given)	inactive
COc1ccc(CCNC(=O)c2c(C)noc2-c2ccc3c(c2)OCO3)cc1OC	inactive
COc1ccc(C2Cn3nnc(C(=O)N4CCC(C(=O)NC5CC5)CC4)c3CO2)cc1 (stereo not given)	inconclusive: 39.8 µM [inhibitor, full curve, poor fit]
CCn1ccc(C(=O)NCC2Cn3cccc3C(=O)N2Cc2ccccc2)n1 (stereo not given)	inconclusive: 89.1 µM [inhibitor, single point]
COc1ccccc1CN1C[C@@H](CO)[C@H](c2ccncc2)C1	inactive
COc1ccc(-c2ccccc2C(=O)NC2Cc3ccccc3C2)nn1	inconclusive: 79.4 µM [inhibitor, partial curve, poor fit]

Compound	Potency
COCc1nc(C2CCN(C(=O)c3n[nH]c4ccccc34)C2)no1 (stereo not given)	inactive
COc1cc(-c2cc(C)c3cccc(OC)c3n2)cc2c1OCCN(C(=O)CCN)C2	inconclusive: 56.2 µM [inhibitor, partial curve, poor fit]
CC(C)Cc1nnc(NC(=O)C2CC(=O)N(c3n[nH]c4cccc(F)c34)C2)s1 (stereo not given)	inconclusive: 79.4 µM [inhibitor, partial curve, poor fit]
Cc1ccc(-c2nc(C(=O)NC(C)c3ccc(F)cc3)no2)cc1 (stereo not given)	inconclusive: 89.1 µM [inhibitor, single point]
CC(=O)c1cccc(NC(=O)Cn2c(-c3ccc(Cl)cc3)nc(C)cc2=O)c1	inconclusive: 39.8 µM [inhibitor, single point]
O=C(Nc1cccnc1)c1ccc2c(c1)OCCN(c1cccc(OC(F)(F)F)c1)C2	active: 28.2 µM
Cc1ncccc1-c1nc2cc(C(=O)N3CCOCC3)ccc2o1	inactive
O=C(Nc1ccc2c(c1)OCCO2)N1c2ccccc2CC1c1nc(C2CC2)no1 (stereo not given)	inconclusive: 70.8 µM [inhibitor, single point]
Cc1ccc([S+](=O)([O-])N2CCN(c3ccc4nnc(C)n4n3)CC2)cc1	inconclusive: 79.4 µM [inhibitor, partial curve, poor fit]
Cc1cccc(-n2nc(C)c(CCC(=O)NC3CC3)c2Oc2ccccc2C)c1	inconclusive: 44.7 µM [inhibitor, partial curve, poor fit]
O=C(NC1CCCN(c2cc(-c3ccccc3)[nH]n2)C1)c1cc(Cl)ccc1F (stereo not given)	inconclusive: 79.4 µM [inhibitor, partial curve, poor fit]
CC(C)CNC(=O)c1ccc2c(c1)NC(C)(COc1ccc3[nH]ccc3c1)CO2 (stereo not given)	inconclusive: 100 µM [inhibitor, partial curve, poor fit]
Cc1cc(OCC(=O)O)c(C)c2c1CC[C@@H]([C@H](C)C(=O)N1CCC(O)CC1)C2	inactive
C[C@H]1[C@@H]2[C@@H](O)C([C@H](C)C(=O)NCc3cc(F)cc(F)c3)CC[C@@]2(C)CC[C@@H]1NC(=O)c1cncnc1 (stereo not given in full)	inconclusive: 7.94 µM [inhibitor, full curve, poor fit]
CN(CCc1noc(C2CN(Cc3ccncc3F)C2)n1)C(=O)C1CC1	inactive
COc1ccccc1CNC(=O)c1ccc2c(c1)CC(=O)N2Cc1ccc(F)cc1	inconclusive: 79.4 µM [inhibitor, single point]
CCc1c(C(=O)N2CCCN(C)C3(CCN(C)CC3)C2)csc1C	inconclusive: 39.8 µM [inhibitor, partial curve]
Cc1nnc([C@@H]2CC(F)(F)CN2C(=O)COc2ccccc2)o1	inactive
Cc1cc(Cl)ccc1-c1ccccc1CN	inconclusive: 22.4 µM [inhibitor, full curve, poor fit]
COc1ccc(Cn2c(=O)c(C(=O)N3CCN([S+](=O)([O-])c4cccs4)CC3)nc3cccnc32)cc1	inactive
COc1ccc(F)cc1-c1cccc(C(=O)NCC(=O)N2CCOCC2)c1	inconclusive: 70.8 µM [inhibitor, partial curve, poor fit]
CC(C)CN1C(=O)CO[C@H](c2ccc(NC(=O)c3ccc(C(F)(F)F)cc3)cc2)[C@H]1CO	inconclusive: 35.5 µM [inhibitor, partial curve]

Compound	Potency
COc1ccccc1Nc1ccnc(N2CCN(C(=O)c3ccccc3C)CC2)n1	active: 44.7 µM
COCCNC(=O)[C@@H]1C[C@H](Oc2ccccc2)CN1C(=O)c1cnccc1C	inactive
Cc1nonc1C1CCCN1c1ccc(-c2nc(COc3ccccc3)no2)cn1 (stereo not given)	inconclusive: 17.8 µM [inhibitor, full curve]
Cc1nn(-c2ccccc2)c2c1C(C)N(C1CN(C(=O)NC3CCCC3)C1)C2=O (stereo not given)	inconclusive: 79.4 µM [inhibitor, partial curve, poor fit]
N[C@@H]1CC[C@H](C(=O)NCc2csc(N3CCCC3)n2)C1	inconclusive: 79.4 µM [inhibitor, single point]
COCCN1Cc2ccc(NCC(C)C)nc2C(C)(C(=O)NC2CC2)C1 (stereo not given)	inconclusive: 100 µM [inhibitor, partial curve, poor fit]
CC(=O)N[C@@H]1CN(Cc2ccc(F)c(Br)c2)C[C@H]1CO	inactive
Cc1cc(Cl)ccc1NC1CN(C(=O)OC(C)(C)C)C1	inconclusive: 112 µM [inhibitor, partial curve]
N#Cc1ccccc1CN1CCCC(c2nc(-c3cccnc3)no2)CCNC(=O)CC1 (stereo not given)	inconclusive: 89.1 µM [inhibitor, single point]
COc1ccnc(N2CCC(CO)(Cc3ccccc3C(F)(F)F)CC2)n1	inconclusive: 50.1 µM [inhibitor, partial curve, poor fit]
CC(C)c1nnc(NC(=O)C2CC(=O)N(c3n[nH]c4cc(Br)ccc34)C2)s1 (stereo not given)	inconclusive: 89.1 µM [inhibitor, single point]
O=C(c1ccc(Cl)nc1)N1CCC(c2nn(Cc3ccccc3)c(=O)[nH]2)CC1	inactive
CN1CCC(C(=O)NCc2c[nH]c3ncccc23)CC1	inconclusive: 12.6 µM [inhibitor, full curve, poor fit]
CC(C)c1nc2c(c(-c3ccc(O)cc3)n1)CN(CC1CCCCC1)CC2	inactive
Cc1ccccc1C(=O)N1CCCN(c2nc3ncccc3o2)CC1	inactive
CC(C)c1noc(CC2CCN(C(=O)c3ccc(C(C)(C)C)cc3)CC2)n1	inconclusive: 44.7 µM [inhibitor, partial curve, poor fit]
O=C(C1CCN(Cc2ccccc2-c2cccnc2)CC1)N1CCC(c2ccccc2)CC1	active: 35.5 µM
COc1cncc(CN2CC[C@@H]3OCC(=O)N(C(C)C)[C@H]3CC2)c1	inconclusive: 100 µM [inhibitor, partial curve, poor fit]
CCOC(=O)[C@H]1C[C@]2(CCCCN(C)C2=O)N(C(=O)C2CC2)[C@H]1c1ccccc1	inactive
COc1ccc2cc(C3CN(C(=O)c4cccn4C)CCO3)ccc2c1 (stereo not given)	inconclusive: 44.7 µM [inhibitor, partial curve, poor fit]
COc1cccc(C(=O)N2CC(=O)N(CCOc3ccccc3)CC(O)C2)c1 (stereo not given)	inconclusive: 89.1 µM [inhibitor, single point]
